# According to PubChem BioAssay AID1240 (Sanford-Burnham Center for Chemical Genomics, 2008):
# Values joined by “and” are separate entries in the source; they are usually repeats but may differ in a detail not shown here. Identical values can stand only once. The whole screen tested about 50,000 compounds, of which about 800 (1.6%) showed an effect of 50% or more. This is one part of the list.
# Target: Bcl-2-like protein 10 (Homo sapiens) (UniProt Q9HD36)
# Experiment: TR3 peptide-Bcl-B binding displacers, biochemical primary FP assay, phenotype converters (AID 1240);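 also: 0% = Bcl-B with tracer peptide and DMSO and 100% = tracer peptide lacking Bcl-B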
# Conditions: GST-Bcl-B / FITC-TR3 peptide fluorescence polarization; stronger effect = higher value; compound at 3.75 mg/L
# Sequence of UniProt Q9HD36 (Q9HD36 whole entry, looked up): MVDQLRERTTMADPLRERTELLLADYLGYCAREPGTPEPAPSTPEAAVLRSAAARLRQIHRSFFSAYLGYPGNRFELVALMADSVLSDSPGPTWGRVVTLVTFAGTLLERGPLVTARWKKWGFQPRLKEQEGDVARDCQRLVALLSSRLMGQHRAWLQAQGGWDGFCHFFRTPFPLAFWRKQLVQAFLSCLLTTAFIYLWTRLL
row,SMILES,displacement
1,C=CCOc1ccc(/C=C2\C(=O)NC(=S)N(c3ccc(Cl)cc3)C2=O)cc1OC,3.6%
2,CC(=O)Nc1ccc2c(c1)C1C=CCC1C(c1ccccc1F)N2 (stereo not given),6.2%
3,COc1cc(NS(=O)(=O)c2ccc([N+](=O)[O-])cc2)cc(OC)c1,2.5%
4,CSc1nnc2c(n1)OC(c1cccc([N+](=O)[O-])c1)Nc1ccccc1-2 (stereo not given),1.2%
5,CCCCOc1ccccc1C1Nc2ccccc2NC2=C1C(=O)CC(c1ccc(OC)c(OC)c1)C2 (stereo not given),0.6%
6,COc1cc(Br)c(C2C(C(=O)OCCOc3ccccc3)=C(C)NC3=C2C(=O)CC(C)(C)C3)cc1OC (stereo not given),-24.3%
7,CCNC(=O)CN(c1cccc(Cl)c1)S(=O)(=O)c1ccccc1,1%
8,COC(=O)c1c(C)oc2ccc(OCc3ccc(F)cc3)cc12,12.1%
9,COC(=O)c1ccc(C(C2C(=O)CC(C)(C)CC2=O)C2C(=O)CC(C)(C)CC2=O)cc1,-7.6%
10,COc1ccccc1NC(=O)COc1ccc(C=C2C(=O)NC(=O)NC2=O)cc1,4.7%
11,Cc1ccc(C(=O)Nc2cccc(-c3nc4ccccc4o3)c2C)cc1,13.7%
12,O=C(CCC1CCCC1)Nc1ccc(F)c([N+](=O)[O-])c1,-6.6%
13,COc1ccc(CC(=O)N2CCN(C(=O)Cc3ccc(OC)cc3)CC2)cc1,0.3%
14,Cc1ccc(S(=O)(=O)NN2C(=O)/C(=C/c3ccc(C(=O)O)cc3)SC2=S)cc1,14%
15,O=C(/C=C/c1ccccc1)NC(=S)Nc1ccc(N2CCOCC2)c(Cl)c1,-1.3%
16,O=[N+]([O-])c1cc(Cl)ccc1NCCCNS(=O)(=O)Cc1ccccc1,8.4%
17,COc1cc(/C=C2/S/C(=N/S(=O)(=O)c3ccccc3)NC2=O)c([N+](=O)[O-])cc1OC,7.6%
18,O=C1NC(=O)N(c2ccc(Cl)cc2)C(=O)/C1=C/c1cc(I)c(O)c([N+](=O)[O-])c1,7.4%
19,COc1cc([N+](=O)[O-])ccc1NC(=O)CSc1nc2ccccc2s1,8.5%
20,CCCOc1ccc(C=Nc2ccc(Nc3ccccc3)cc2)cc1OC,31%
21,CCN(CC)CCN1C(=O)C2C3c4ccccc4C(c4ccccc43)C2C1=O (stereo not given),6.4%
22,Cc1cc2c(cc1C)NC(c1ccc(OC(F)(F)F)cc1)C1=C(CC(C)(C)CC1=O)N2 (stereo not given),-1.2%

row,SMILES,displacement
1,CCOc1ccccc1/C=C1/SC(=S)N(CC(=O)OC)C1=O,0%
2,O=C1/C(=C\c2ccc(-c3ccc([N+](=O)[O-])cc3Br)o2)SC(=S)N1Cc1ccccc1,4%
3,O=C(O)c1cc2nc(-c3cccs3)cc(C(F)(F)F)n2n1,-14.6%
4,CC(=O)c1cccc(N2C(=O)C3C4C=CC(C4)C3C2=O)c1 (stereo not given),28.9%
5,O=C(/C=C/c1ccc(F)cc1)N1CCN(Cc2ccccc2)CC1,-11.9%
6,COCCOC(=O)C1=C(C)NC(=O)CC1c1ccccc1OC(C)C (stereo not given),-9.8%
7,O=C(O)C1C2CCC(C2)C1C(=O)Nc1nc2c(s1)CCCC2 (stereo not given),-7.2%
8,C=C(C)c1cccc(C(C)(C)NC(=O)N(C)C2CCN(C)CC2)c1,-6.7%
9,Cc1c(C(=O)N2CCN(C)CC2)cccc1[N+](=O)[O-],17.3%
10,CCCCOc1ccc2c(C)c(CC)c(=O)oc2c1,-1.3%
11,O=C(CN1C(=O)c2ccccc2C1=O)Nc1ccc(C(=O)Nc2cccc(O)c2)cc1,4.9%
12,COc1ccc(C(=O)N2CCN(Cc3ccc4c(c3)OCO4)CC2)cc1OC,10.6%
13,Cc1cc(C)nc(SCN2C(=O)c3ccccc3C2=O)n1,-13.4%
14,Cc1cccc(C)c1OCC(O)CNC(C)(C)C (stereo not given),14%
15,CC(C)CC(=O)NS(=O)(=O)c1ccc(NC(=O)c2ccccc2)cc1,15.7%
16,Cc1cccc(N2C(=O)/C(=C3/C(=O)N(C)c4ccccc43)SC2=S)c1C,-10.3%
17,BrC(/C=N\N1CCN(c2ccccc2)CC1)=C\c1ccccc1,-16.7%
18,Cc1cc([N+](=O)[O-])ccc1-c1ccc(C(=O)Nc2ccc(Cl)cn2)o1,50.1%
19,CC(C)Oc1cccc(C(=O)Nc2ccc(Cl)cn2)c1,11.6%
20,COc1ccc(OC)c(/C=N/N2CCN(Cc3ccc(Cl)cc3)CC2)c1,-17.9%
21,O=C(O)CCSc1nc2ccc(N3C(=O)c4ccccc4C3=O)cc2s1,-1.3%
22,O=S(=O)(Cc1ccccc1)CC(O)COc1ccccc1 (stereo not given),-5.8%

row,SMILES,displacement
1,CCOC(=O)Cc1nnc(NC(=O)c2cccs2)s1,-2.9%
2,COc1ccc(N2C(=O)c3ccccc3NC2c2ccc(C)cc2)cc1 (stereo not given),1.9%
3,Cc1ccc(-n2cc(C=C3C(=O)NC(=O)NC3=O)cn2)cc1C,110%
4,CCc1c(O)nc(SCC(=O)c2ccccc2)[nH]c1=O,24.1%
5,CCOc1ccccc1N1CCN(C(=O)c2cc(OC)c(OC)c(OC)c2)CC1,2.1%
6,O=C1c2cccc3c([N+](=O)[O-])ccc(c23)C(=O)N1c1ccc(O)cc1,20.7%
7,CSc1ccc(S(=O)(=O)N(CC(=O)N2CCCC2)c2ccc(C)cc2)cc1,4.9%
8,CCSc1nnc2c(n1)[nH]c1c(C)cccc12,0.1%
9,COc1ccc(N=Cc2cccc(C)c2O)cc1Cl,-2.5%
10,O=C(c1cn(-c2ccccc2)nc1-c1ccccc1)N1CCCCC1,14.4%
11,CC(Oc1cccc(Cl)c1)C(=O)NCc1ccco1 (stereo not given),8.2%
12,CCc1c(C)sc(NC(=O)c2cccnc2)c1C(N)=O,3.4%
13,Cc1ccc(S(=O)(=O)NC(=O)NC(C)(C)C)cc1,7.1%
14,NC(=O)c1ccccc1NC(=O)COc1cccc2ccccc12,-10.2%
15,COCC(O)CSCc1ccc(Cl)cc1 (stereo not given),2.1%
16,O=C(c1cc2nc(-c3ccccc3)cc(-c3ccccc3)n2n1)N1CCCC1,26.9%
17,N/C(=N\OC(=O)Cc1ccccc1)c1ccccc1,-7.1%
18,Cc1cc(/C=N/NC(N)=S)c(C)n1-c1ccc(N(C)C)cc1,-5.2%
19,COc1ccc(NC(=O)CN(c2ccc(C)cc2)S(=O)(=O)c2ccc(SC)cc2)cc1OC,-2.5%
20,CN1CCN(C(=O)c2ccccc2NC(=O)CCN2C(=O)c3ccccc3C2=O)CC1,-5.9%
21,O=C(c1cccc(F)c1)N1CCN(C(=O)c2cccc(Cl)c2)CC1,-18.6%
22,CCC(=O)/C(C)=C(\NC(=O)c1ccccc1)c1ccccc1,-4.8%

row,SMILES,displacement
1,CCCCOc1ccc(/C=N\Nc2cc(-n3nc(C)cc3C)nc(C)n2)cc1,-13.9%
2,COc1ccccc1/C=C1\SC(=S)N(CC(=O)NNc2ccccc2)C1=O,-0.9%
3,CCc1ccc(CN2CCN(C(=O)c3ccc(OC)cc3)CC2)cc1,13.3%
4,Cc1ccc(-c2nn(CCC#N)cc2C=O)o1,-2.4%
5,O=C(O)CCCCCN1C(=O)C(=O)/C(=C(/O)c2ccc(Cl)cc2)C1c1ccccc1F (stereo not given),5.8%
6,COc1cc(N/N=C/c2ccccc2O)ncn1,-3.2%
7,Cc1c(Cc2ccccc2)c(=O)oc2cc(OCC(=O)C(C)(C)C)ccc12,-6.3%
8,Cc1ccc(N(CC(=O)NC2CCCCC2)S(=O)(=O)c2ccc(F)cc2)cc1,3.3%
9,CC(=O)NC(NC(=S)N1CCCCCC1)C(Cl)(Cl)Cl (stereo not given),0.7%
10,Cc1ccc(S(=O)(=O)N(CC(=O)Nc2ccccc2C)Cc2ccccc2)cc1,7.2%
11,CCCC(=O)Nc1cc2nn(-c3ccc(C)cc3)nc2cc1C,-9.9%
12,COc1ccc(NC(=O)c2c(N)sc3c2CCCC3)cc1,11.1%
13,CSc1ccc(S(=O)(=O)N(CC(=O)Nc2cccc(C)c2)c2ccc(C)cc2)cc1,10.1%
14,O=C1NN(c2ccccc2)C(=O)C2C3C=CC(C4CC34)C12 (stereo not given),-2.2%
15,CCOc1ccc(N2C(=O)/C(=C/c3cccc4ccccc34)SC2=S)cc1,2.6%
16,COC(=O)c1c(C)oc2ccc(OCc3cc(C)ccc3C)cc12,13.4%
17,O=C1N=C(N2CCOCC2)S/C1=C/c1ccc(Cl)cc1,-0.1%
18,Cc1ccc(NC(=O)c2cc(C(=O)Nc3ccc(C)c(C)c3)n(C)n2)cc1C,11.3%
19,COc1ccc(N2C(=O)C=CC2=O)c([N+](=O)[O-])c1,11.9%
20,O=C(N1CCN(Cc2ccccc2)CC1)C(Cl)(Cl)Cl,15.8%
21,CCOC(=O)C(CCCOc1ccccc1)C(=O)OCC,15.3%
22,O=C(Cc1ccc([N+](=O)[O-])cc1)Nc1ccc(F)cc1F,-8.7%

row,SMILES,displacement
1,CN(C)c1ccc(/C=c2\sc3nc4ccccc4n3c2=O)cc1,107%
2,S=C1NC(c2ccccc2)N2C(=S)NC(c3ccccc3)N12 (stereo not given),-5.1%
3,CC(C)CNC(=O)CN(c1cccc(Cl)c1)S(C)(=O)=O,2.9%
4,Cc1ccc(P(=O)(c2ccc(C)cc2)C(C)(C)O)cc1,-6.7%
5,CN1CCN(C(=O)c2nn3c(C(F)(F)F)c4c(nc3c2Cl)-c2ccccc2CC4)CC1,-1%
6,O=C(c1ccccc1)N1CCN(C2CCC(c3ccccc3)CC2)CC1 (stereo not given),-18.9%
7,O=C(Nc1ccccc1Cl)Nc1cccc2cccnc12,-3.5%
8,CC(=O)OC1COC(n2ncc(=O)[nH]c2=S)C(OC(C)=O)C1OC(C)=O (stereo not given),-8.5%
9,C=C(C)c1ccccc1NC1=NS(=O)(=O)c2ccccc21,5.7%
10,O=C(NCc1ccccc1)c1ccc2nccnc2c1,0.4%
11,C/C(=N\NC(=O)c1c[nH]c2ccccc12)c1ccco1,1.5%
12,CCCOc1ccc(N2C(=O)CC(N3CCN(Cc4ccccc4)CC3)C2=O)cc1 (stereo not given),2.2%
13,O=C(NCc1ccc2c(c1)OCO2)NC12CC3CC(CC(C3)C1)C2,-8.3%
14,CCOc1ccc(C(=O)N2CCN(c3ccccc3OC)CC2)cc1,-1.2%
15,CC(Nc1cc(=O)n(C)c(=O)n1C)c1ccccc1 (stereo not given),10%
16,Cc1ccc(S(=O)(=O)/N=C2\C=C(Sc3ncn[nH]3)C(=O)c3ccccc32)cc1,42.2%
17,COc1ccccc1NC(NC(=O)c1ccco1)C(=O)c1ccccc1 (stereo not given),-0.4%
18,O=C(O)c1cc2ccc(O)cc2oc1=O,26.4%
19,O=C1C(Cc2cccc([N+](=O)[O-])c2)S/C(=N/N=C/c2ccccc2)N1c1ccccc1 (stereo not given),7.7%
20,Nc1c(C(=O)O)nnn1Cc1ccccc1,5%
21,COc1ccc2nc(NC(=O)C(C)(C)C)sc2c1,3.6%
22,Cc1cc(=O)n2[nH]c(-c3ccccc3)cc2n1,-2.2% and 5.7%
